The other results are listed elsewhere or left out. Viral Rep nickase domains cut single-stranded DNA in vitro (3 µM enzyme, 1 h, 37 °C); shown is the middle of each 90-letter strand. A value is the log2 ratio of uncut reads to the pool without enzyme; strong cutting gives strongly negative numbers. There is no active / inactive call. Because reads are shares of a total, they shift together, so uncut sequences can rise above 0 when many others are cut.
Assays:
Assay in all cases: uncleaved DNA left, log2 of reads against the no-enzyme library (log2 ratio); higher = less cleavage (more negative = more Rep cleavage of the k-mer); sequences stand for … in CTCGTCCG…ACCGGAGA
[1] = tested on: T1, Rep nickase domain of Muscovy duck circovirus
T1 sequence (residues 1-111, tag not shown): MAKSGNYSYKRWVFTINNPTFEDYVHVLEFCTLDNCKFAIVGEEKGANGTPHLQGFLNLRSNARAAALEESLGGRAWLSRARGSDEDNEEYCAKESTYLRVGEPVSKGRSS
Protocol: (§1)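 A pool of 90-nt single-stranded DNAs with seven random bases just before the constant AC of the nick site (name = the seven bases) was cut by 3 µM recombinant His6-SUMO-tagged Rep nickase domain (300 nM DNA, 50 mM HEPES pH 8.0, 50 mM NaCl, 1 mM MnCl2, 1 h, 37 °C, three replicates). Uncut DNA was amplified and sequenced.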

[2] = tested on: T2, Rep nickase domain of banana bunchy top virus
T2 sequence (residues 1-94, tag not shown): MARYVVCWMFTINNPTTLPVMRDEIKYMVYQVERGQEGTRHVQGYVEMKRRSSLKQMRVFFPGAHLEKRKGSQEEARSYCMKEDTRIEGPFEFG
Protocol: as §1

[3] = tested on: T3, Rep nickase domain of cabbage leaf curl virus
T3 sequence (residues 1-116, tag not shown): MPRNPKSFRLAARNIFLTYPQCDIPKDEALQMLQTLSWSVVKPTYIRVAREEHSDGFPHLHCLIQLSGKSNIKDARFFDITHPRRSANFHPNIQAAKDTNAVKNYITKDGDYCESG
Protocol: as §1

[4] = tested on: T4, Rep nickase domain of chickpea chlorotic dwarf virus
T4 sequence (residues 1-124, tag not shown): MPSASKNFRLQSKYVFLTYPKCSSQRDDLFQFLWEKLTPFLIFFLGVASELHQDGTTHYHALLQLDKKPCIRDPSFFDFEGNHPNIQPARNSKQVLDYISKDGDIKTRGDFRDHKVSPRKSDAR
Protocol: as §1

[5] = tested on: T5, Rep nickase domain of faba bean necrotic yellows virus
T5 sequence (residues 1-98, tag not shown): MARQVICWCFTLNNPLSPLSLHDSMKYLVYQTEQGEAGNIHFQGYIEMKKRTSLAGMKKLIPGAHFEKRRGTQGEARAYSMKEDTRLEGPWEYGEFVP
Protocol: as §1

[6] = tested on: T6, Rep nickase domain of maize striate mosaic virus
T6 sequence (residues 1-117, tag not shown): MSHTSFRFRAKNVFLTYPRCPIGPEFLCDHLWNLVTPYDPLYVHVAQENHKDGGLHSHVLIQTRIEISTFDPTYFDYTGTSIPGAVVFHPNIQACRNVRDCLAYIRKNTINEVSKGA
Protocol: as §1

[7] = tested on: T7, Rep nickase domain of porcine circovirus 2
T7 sequence (residues 2-116, tag not shown): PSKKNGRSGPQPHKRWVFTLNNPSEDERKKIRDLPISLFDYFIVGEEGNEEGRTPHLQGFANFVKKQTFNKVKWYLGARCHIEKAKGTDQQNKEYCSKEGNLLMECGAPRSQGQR
Protocol: as §1

[8] = tested on: T8, Rep nickase domain of tomato yellow leaf curl virus
T8 sequence (residues 1-136, tag not shown): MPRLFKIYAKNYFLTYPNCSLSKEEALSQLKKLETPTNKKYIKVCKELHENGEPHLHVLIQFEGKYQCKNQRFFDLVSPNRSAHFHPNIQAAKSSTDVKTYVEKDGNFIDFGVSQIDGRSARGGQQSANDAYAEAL
Protocol: as §1

[9] = tested on: T9, Rep nickase domain of wheat dwarf virus
T9 sequence (residues 1-137, tag not shown): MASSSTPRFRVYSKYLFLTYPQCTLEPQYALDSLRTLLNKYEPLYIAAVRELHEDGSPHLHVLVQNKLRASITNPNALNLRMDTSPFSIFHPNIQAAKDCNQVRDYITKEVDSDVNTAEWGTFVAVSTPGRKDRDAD
Protocol: as §1

Row | Sequence | uncleaved DNA left (log2) [1] | uncleaved DNA left (log2) [2] | uncleaved DNA left (log2) [3] | uncleaved DNA left (log2) [4] | uncleaved DNA left (log2) [5] | uncleaved DNA left (log2) [6] | uncleaved DNA left (log2) [7] | uncleaved DNA left (log2) [8] | uncleaved DNA left (log2) [9]
1 | TGATCAC | 0.013 | 0.128 | 0.335 | 0.697 | -0.0235 | 0.866 | 0.104 | 0.21 | 0.271
2 | TGATAGA | 0.145 | 0.0888 | 0.0957 | -0.137 | 0.123 | -0.756 | 0.203 | 0.0403 | 0.0609
3 | TTGCTTT | 0.0473 | -0.0103 | -0.363 | -1.75 | -0.00383 | -0.915 | -0.309 | 0.0688 | -0.0714
4 | AATCAAT | 0.0724 | 0.172 | 0.331 | 0.135 | 0.0084 | 0.593 | -1.67 | 0.108 | 0.0687
5 | ATCGCTC | -0.127 | -0.0722 | -0.0818 | -0.463 | -0.0512 | -0.923 | -0.0258 | -0.0214 | -0.0816
6 | TGACAAC | -0.0495 | 0.0837 | 0.412 | 0.114 | -0.0463 | 1.24 | 0.181 | 0.177 | 0.235
7 | AGGTAAG | 0.04 | -0.068 | -0.57 | -0.535 | 0.104 | -0.932 | 0.121 | 0.0253 | -0.129
8 | TTCGCGC | 0.0164 | -0.0101 | -0.817 | -0.203 | 0.105 | -0.942 | 0.111 | 0.0326 | -0.212
9 | AGTCGTC | 0.151 | 0.0298 | 0.00853 | 0.000203 | -0.00447 | -0.472 | -0.0372 | -0.0173 | 0.0772
10 | CACATAA | 0.0778 | 0.0132 | -0.173 | -0.654 | 0.0453 | -0.981 | 0.121 | -0.063 | 0.0937
11 | TCCACCG | -0.116 | -0.152 | -0.84 | -0.843 | -0.136 | -0.919 | 0.00321 | -0.154 | -0.189
12 | TTATTGA | -0.00233 | -0.0197 | -0.174 | -0.345 | 0.00245 | -1.05 | 0.00887 | 0.0686 | -0.0606
13 | GGCTTTT | -0.641 | 0.0598 | 0.337 | 0.64 | 0.00969 | 1.72 | -2.48 | 0.0375 | 0.0953
14 | TATTACT | -4.35 | -4.39 | -4.06 | -4.26 | -3.69 | -2.19 | -4.71 | 0.0113 | -3.68
15 | GGTGACC | -0.0738 | -0.00826 | 0.591 | 1.63 | 0.00814 | 1.93 | 0.124 | 0.071 | 0.119

From the supplement of paper PMC7826260
